# Experimental data published in publication PMC12820563, “FoxP3 forms a head-to-head dimer in vivo and stabilizes its multimerization on adjacent microsatellites”.
# The other results are listed elsewhere or left out.
# Molecular target: T1, MBP-FoxP1dN (Mus musculus, UniProt P58462 326-579)
# T1 sequence: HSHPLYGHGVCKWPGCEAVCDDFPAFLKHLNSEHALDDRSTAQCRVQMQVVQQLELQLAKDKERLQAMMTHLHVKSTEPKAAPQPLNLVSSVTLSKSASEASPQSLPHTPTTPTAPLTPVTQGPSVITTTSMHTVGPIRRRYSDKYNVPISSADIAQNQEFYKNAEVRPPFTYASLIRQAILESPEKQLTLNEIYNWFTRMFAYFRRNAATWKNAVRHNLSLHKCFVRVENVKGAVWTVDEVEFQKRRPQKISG
# Assay: PD-seq (MBP pull-down with sequencing); 20 mM Tris-HCl pH 7.5, 100 mM NaCl, 1.5 mM MgCl2, 0.4 uM protein, 0.1 uM dsDNA library, 30 min, room temperature, amylose pull-down; high values mean tight binding
# Conditions: protein: recombinant; tags: His6-MBP; chain copies: 2; dsDNA, one strand shown
# Outline: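 The N-terminus-lacking fragment of mouse FoxP3 or FoxP1 carried a His6-MBP tag and was expressed in E. coli. At 0.4 µM it was incubated with 0.1 µM Klenow-filled degenerate double-stranded DNA library for 30 min at room temperature in Tris pH 7.5 buffer with NaCl and MgCl2, and complexes were caught on amylose resin, washed three times, released with proteinase K, PCR-barcoded and Illumina-sequenced. Binding is reads-per-million enrichment of pull-down over input with replicates pooled.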
row,Sequence,binding signal
1,GATGATTGTTCTCCCAGCTGATGAATTTTACATTTCGAGTAAACAAATTTTCCTAATCTTTCTGTTCAAGCGCCATCTAC,0.872 RPM ratio (pull-down/input)
2,GATGATTGTTCTCCCAGCTGATGAATTCTGGGCTTCGAGTAAACAAATTTTCCTAATCTTTCTGTTCAAGCGCCATCTAC,0.843 RPM ratio (pull-down/input)
3,GATGATTGTTCTCCCAGCTGATGAATTAAATGCCTCGAGTAAACAAATTTTCCTAATCTTTCTGTTCAAGCGCCATCTAC,1.03 RPM ratio (pull-down/input)
4,GATGATTGTTCTCCCAGCTGATGAATTCTCCCACTCGAGTAAACAAATTTTCCTAATCTTTCTGTTCAAGCGCCATCTAC,0.903 RPM ratio (pull-down/input)
5,GATGATTGTTCTCCCAGCTGATGAATTCCATCTATCGAGTAAACAAATTTTCCTAATCTTTCTGTTCAAGCGCCATCTAC,0.854 RPM ratio (pull-down/input)
6,GATGATTGTTCTCCCAGCTGATGAATTGACCGCGTCGAGTAAACAAATTTTCCTAATCTTTCTGTTCAAGCGCCATCTAC,0.965 RPM ratio (pull-down/input)
7,GATGATTGTTCTCCCAGCTGATGAATTGCGCACATCGAGTAAACAAATTTTCCTAATCTTTCTGTTCAAGCGCCATCTAC,1.26 RPM ratio (pull-down/input)
8,GATGATTGTTCTCCCAGCTGATGAATTGGTGTCTTCGAGTAAACAAATTTTCCTAATCTTTCTGTTCAAGCGCCATCTAC,0.994 RPM ratio (pull-down/input)
9,GATGATTGTTCTCCCAGCTGATGAATTTACATTATCGAGTAAACAAATTTTCCTAATCTTTCTGTTCAAGCGCCATCTAC,1.61 RPM ratio (pull-down/input)
10,GATGATTGTTCTCCCAGCTGATGAATTCTTGCTATCGAGTAAACAAATTTTCCTAATCTTTCTGTTCAAGCGCCATCTAC,1.09 RPM ratio (pull-down/input)
11,GATGATTGTTCTCCCAGCTGATGAATTAAGGACTTCGAGTAAACAAATTTTCCTAATCTTTCTGTTCAAGCGCCATCTAC,0.768 RPM ratio (pull-down/input)
12,GATGATTGTTCTCCCAGCTGATGAATTGCCCGCTTCGAGTAAACAAATTTTCCTAATCTTTCTGTTCAAGCGCCATCTAC,0.903 RPM ratio (pull-down/input)
13,GATGATTGTTCTCCCAGCTGATGAATTTCGACAATCGAGTAAACAAATTTTCCTAATCTTTCTGTTCAAGCGCCATCTAC,1.18 RPM ratio (pull-down/input)
14,GATGATTGTTCTCCCAGCTGATGAATTATTAAATTCGAGTAAACAAATTTTCCTAATCTTTCTGTTCAAGCGCCATCTAC,1.23 RPM ratio (pull-down/input)
15,GATGATTGTTCTCCCAGCTGATGAATTCCCGTTCTCGAGTAAACAAATTTTCCTAATCTTTCTGTTCAAGCGCCATCTAC,0.776 RPM ratio (pull-down/input)
16,GATGATTGTTCTCCCAGCTGATGAATTAACGTCGTCGAGTAAACAAATTTTCCTAATCTTTCTGTTCAAGCGCCATCTAC,0.854 RPM ratio (pull-down/input)

row,Sequence,binding signal
1,GATGATTGTTCTCCCAGCTGATGAATTGAGTCCATCGAGTAAACAAATTTTCCTAATCTTTCTGTTCAAGCGCCATCTAC,0.869 RPM ratio (pull-down/input)
2,GATGATTGTTCTCCCAGCTGATGAATTAGCTTGCTCGAGTAAACAAATTTTCCTAATCTTTCTGTTCAAGCGCCATCTAC,0.943 RPM ratio (pull-down/input)
3,GATGATTGTTCTCCCAGCTGATGAATTCCGTCATTCGAGTAAACAAATTTTCCTAATCTTTCTGTTCAAGCGCCATCTAC,0.932 RPM ratio (pull-down/input)
4,GATGATTGTTCTCCCAGCTGATGAATTGATGAAGTCGAGTAAACAAATTTTCCTAATCTTTCTGTTCAAGCGCCATCTAC,0.965 RPM ratio (pull-down/input)
5,GATGATTGTTCTCCCAGCTGATGAATTGTGTACTTCGAGTAAACAAATTTTCCTAATCTTTCTGTTCAAGCGCCATCTAC,1.84 RPM ratio (pull-down/input)
6,GATGATTGTTCTCCCAGCTGATGAATTTAGGCATTCGAGTAAACAAATTTTCCTAATCTTTCTGTTCAAGCGCCATCTAC,1.19 RPM ratio (pull-down/input)
7,GATGATTGTTCTCCCAGCTGATGAATTGTTAGAATCGAGTAAACAAATTTTCCTAATCTTTCTGTTCAAGCGCCATCTAC,1.12 RPM ratio (pull-down/input)
8,GATGATTGTTCTCCCAGCTGATGAATTCGCAGAGTCGAGTAAACAAATTTTCCTAATCTTTCTGTTCAAGCGCCATCTAC,0.831 RPM ratio (pull-down/input)
9,GATGATTGTTCTCCCAGCTGATGAATTGAGCATGTCGAGTAAACAAATTTTCCTAATCTTTCTGTTCAAGCGCCATCTAC,0.889 RPM ratio (pull-down/input)
10,GATGATTGTTCTCCCAGCTGATGAATTGGAATTGTCGAGTAAACAAATTTTCCTAATCTTTCTGTTCAAGCGCCATCTAC,0.993 RPM ratio (pull-down/input)
11,GATGATTGTTCTCCCAGCTGATGAATTATCTATCTCGAGTAAACAAATTTTCCTAATCTTTCTGTTCAAGCGCCATCTAC,0.919 RPM ratio (pull-down/input)
12,GATGATTGTTCTCCCAGCTGATGAATTTAAGAGCTCGAGTAAACAAATTTTCCTAATCTTTCTGTTCAAGCGCCATCTAC,0.768 RPM ratio (pull-down/input)
13,GATGATTGTTCTCCCAGCTGATGAATTGAGTTTGTCGAGTAAACAAATTTTCCTAATCTTTCTGTTCAAGCGCCATCTAC,1.2 RPM ratio (pull-down/input)
14,GATGATTGTTCTCCCAGCTGATGAATTATATAAGTCGAGTAAACAAATTTTCCTAATCTTTCTGTTCAAGCGCCATCTAC,1.13 RPM ratio (pull-down/input)
15,GATGATTGTTCTCCCAGCTGATGAATTCGTTGCTTCGAGTAAACAAATTTTCCTAATCTTTCTGTTCAAGCGCCATCTAC,0.913 RPM ratio (pull-down/input)
